Some of the results follow. Sequences were assembled here from the parent chain. Inactive controls read about 0.05.
B1: TEV protease; numbered along this chain (parent)
chain: MGESLFKGPRDYNPISSSICHLTNESDGHTTSLYGIGFGPFIITNKHLFRRNNGTLVVQSLHGVFKVKDTTTLQQHLVDGRDMIIIRMPKDFPPFPQKLKFREPQREERICLVTTNFQTKSMSSMVSDTSCTFPSGDGIFWKHWIQTKDGQCGSPLVSTRDGFIVGIHSASNFTNTNNYFTSVPKNFMELLTNQEAQQWVSGWRLNADSVLWGGHKVFMVKPEEPFQPVKEATQL

Variants of: B1
Experiment: raw area under fraction-flipped curve 0-4 h after induction (AUC4h, not background-subtracted), DNA-recorder readout of cleavage of the substrate (dimensionless); higher = more cleavage of the substrate by the protease variant
Details: temperature: 34 °C; time window: 0-4 h after rhamnose induction
Protocol: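 In vivo DNA recorder in E. coli TOP10(DE3) ΔrhaA at 34 °C. Each TEVp single-site mutant (parent TEVp 0) is paired with a single-site variant of the 7-mer TEVs (canonical ENLYFQ|S). The substrate sits between flexible linkers in a Bxb1-sfGFP-TEVs-SsrA fusion, so cleavage stabilises Bxb1 and speeds flipping of a recombination array, read by NGS. The value is the raw area under the fraction-flipped curve over 0-4 h after rhamnose induction (AUC4h), with ≥20 reads per time point. It is not background-subtracted; inactive controls average about 0.047.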
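Further: Bxb1 expression induced with 0.2% (w/v) L-rhamnose at OD600 near 0.5, cultures sampled hourly, flipped fraction per protease–substrate barcode pair counted by paired-end Illumina sequencing.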

Variant | area with substrate ENLYFQC | area with substrate ENLYFQF | area with substrate ENLYFQH | area with substrate ENLYFQK | area with substrate ENLYFQM | area with substrate ENLYFQP | area with substrate ENLYFQR | area with substrate ENLYFQS | area with substrate ENLYFQT | area with substrate ENLYFQV
K216Y | 0.0913 | 0.0555 | 0.07 | 0.0533 | 0.0707 | 0.0599 | 0.0364 | 0.0801 | 0.0519 | 0.0503
K216E | – | – | – | – | – | – | – | 0.093 | – | –
V58A | – | – | – | – | 0.0919 | – | – | 0.099 | – | 0.065
V58I | – | 0.0779 | – | – | 0.109 | 0.0559 | 0.0422 | 0.113 | – | –
F218C | 0.114 | 0.0449 | – | 0.059 | 0.051 | – | – | 0.103 | – | 0.0586
F218E | 0.124 | 0.0503 | 0.0502 | 0.049 | 0.0727 | – | 0.0553 | 0.0923 | – | 0.0405
F218Q | 0.0966 | – | 0.0756 | 0.0642 | 0.0629 | 0.0597 | 0.0604 | 0.0929 | 0.062 | 0.0725
T71S | – | – | – | – | 0.116 | – | – | 0.0934 | 0.0793 | –
V229W | 0.112 | 0.0623 | – | 0.0538 | 0.0897 | – | – | 0.0951 | 0.0479 | 0.0577
D82S | – | – | 0.0627 | 0.0532 | 0.0453 | 0.0574 | 0.0721 | 0.0548 | – | –
F133S | – | 0.0545 | 0.0926 | – | – | – | 0.0593 | 0.103 | 0.0608 | –
L211G | – | – | 0.0846 | – | 0.0614 | 0.0673 | 0.0585 | 0.0945 | 0.0753 | 0.0495
T119K | – | – | – | 0.0578 | – | 0.0801 | 0.0659 | 0.106 | 0.0673 | –
F101G | – | – | 0.0477 | 0.0646 | – | – | – | 0.0543 | 0.0567 | –
R106C | – | – | – | 0.0546 | 0.0853 | – | 0.0623 | 0.0979 | 0.0666 | –
N177R | – | 0.0782 | 0.1 | 0.0708 | – | – | 0.0765 | 0.135 | 0.0491 | –
G153A | – | – | – | 0.0607 | – | – | – | 0.0604 | – | 0.0506
C111E | – | 0.0664 | – | 0.0612 | – | – | – | 0.0891 | 0.0575 | 0.0553

Same assay, conditions: temperature: 34 °C; time window: 0-4 h after rhamnose induction

Variant | area with substrate ENLYFQY | area with substrate ENLYFQE | area with substrate ENLYFQN | area with substrate ENLYFQG | area with substrate ENLYFQI | area with substrate ENLYFQW | area with substrate ENLYFQL | area with substrate ENLYFQQ | area with substrate ENLYFQD
K216Y | 0.0686 | – | – | – | – | – | – | – | –
K216E | – | 0.064 | 0.0588 | – | – | – | – | – | –
V58A | – | – | – | 0.09 | – | – | – | – | –
V58I | – | – | – | 0.0918 | 0.0547 | 0.085 | – | – | –
F218C | – | – | 0.073 | 0.0986 | – | – | 0.0582 | 0.0716 | –
F218E | – | 0.0646 | 0.0625 | 0.0826 | 0.0628 | 0.0539 | 0.0613 | 0.0607 | –
F218Q | 0.046 | – | 0.0657 | 0.089 | – | – | 0.0666 | 0.0642 | 0.0505
T71S | – | – | – | 0.085 | – | 0.0686 | 0.0502 | – | –
V229W | 0.0831 | – | 0.0998 | 0.0923 | 0.0705 | – | 0.0583 | – | 0.067
D82S | – | – | 0.0548 | 0.0402 | 0.0571 | 0.069 | 0.0661 | – | –
F133S | – | – | – | 0.11 | 0.0632 | 0.0624 | 0.0827 | – | –
L211G | 0.0627 | – | 0.0646 | 0.0822 | – | – | 0.0422 | – | 0.0709
T119K | – | – | – | – | – | 0.0641 | 0.0499 | – | 0.0552
F101G | 0.0719 | – | – | 0.0521 | – | 0.051 | – | – | 0.0525
R106C | 0.0858 | – | – | 0.0969 | 0.0428 | – | 0.0579 | – | 0.0711
N177R | – | – | 0.0914 | – | 0.0618 | – | 0.0588 | – | –
G153A | – | – | – | 0.0593 | 0.0615 | 0.0263 | – | – | –
C111E | – | – | 0.106 | – | 0.04 | 0.0688 | 0.0696 | – | –

From the supplement of paper PMC12217912
